# Measurements from PubChem BioAssay (Tox21).
# Where “and” joins values, the source holds several entries; their conditions need not be identical. Equal entries are not always repeated. Inconclusive results, whose numbers are uncertain, are shown with a selection of clear calls. Where the call is inconclusive, the potency comes from a doubtful curve fit. A structure can be active in one record and inactive in another. Calls of active or inactive are those of the source. Unless noted, calls follow the shape of the dose curve; as a rule, active = well fitted curve in the direction sought with a large enough effect in the repeat runs; inconclusive = weak or mixed curves; inactive = no such curve, though single readings can be large; an effect the other way counts as inactive or inconclusive.
# What was measured:
# [1] = qHTS assay to identify small molecule antagonists of the androgen receptor (AR) signaling pathway using the MDA cell line in the presence of 0.5 nM R1881 - cell viability counter screen (AID 1259242); also: nearly all actives have a fitted effect of over 45% in size
# Outline: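 Fluorescence from CellTiter-Fluor, which reports protease activity of live cells, was read 30 min after reagent addition to MDA-kb2 cells that had been incubated 16 hr with compound and 0.5 nM R1881.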
# [2] = qHTS assay to identify small molecule antagonists of the sonic hedgehog signaling (Shh) pathway (AID 1259369; calls by dose curve; also: nearly all actives have a fitted effect of over 45% in size)
# Outline: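 Screening used 3T3Gli1-Luc cells at 2,000 per well, compounds delivered in DMSO, and conditioned medium as agonist stimulus; plates incubated 24hr at 37 C and 5% CO2 before a 30min luciferase step.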
# [3] = qHTS assay to identify small molecule agonists of the estrogen receptor beta (ER-beta) signaling pathway - cell viability counter screen (AID 1259380); also: nearly all actives have a fitted effect of over 30% in size
# Outline: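 Viability of ER-beta-UAS-bla HEK293T cells was determined by CellTiter-Glo luminescence following 16 hr treatment with test compounds at 37C.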
# [4] = qHTS assay to identify small molecule antagonists of the estrogen receptor beta (ER-beta) signaling pathway - cell viability counter screen (AID 1259382); also: nearly all actives have a fitted effect of over 55% in size
# Outline: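 Tox21 10K library tested in qHTS format on ER-beta-bla HEK293T cells stimulated with 1nM E2; 16 hr treatment at 37C. Same-well CellTiter-Glo luminescence served as the cell viability measure.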
# [5] = qHTS assay to identify small molecule agonists of the estrogen receptor alpha (ER-alpha) signaling pathway in the presence of an antagonist - cell viability counter screen (AID 1259386);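 also: cells exposed to compounds for 22 h at 37 °C before the viability read; nearly all actives have a fitted effect of over 30% in size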
# Outline: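 Fluorescent CellTiter-Fluor viability signal from VM7Luc4E2 cells, with the reagent added during the final hour of a 22hr compound exposure at 37C in the presence of 10.0nM ICI-182,780.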
# [6] = qHTS assay to identify small molecule antagonists of the sonic hedgehog signaling (Shh) pathway - cell viability counter screen (AID 1259367); also: nearly all actives have a fitted effect of over 55% in size
# Outline: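 NIH/3T3-derived Gli1-Luc reporter cells (2,000 per well) rested 4 hr at 37 C, then received DMSO compounds plus conditioned medium. After 23 hr of treatment, CellTiter-Fluor was added for 1 hr at 37C and fluorescence read.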
# [7] = biological target: Estrogen receptor beta (Homo sapiens) (UniProt Q92731); assay: qHTS assay to identify small molecule agonists of the estrogen receptor beta (ER-beta) signaling pathway (AID 1259377; active = well fitted activation curve with a large enough effect in the signal ratio in the repeat runs, not every such curve was filed as active; inconclusive = weak or mixed curves, or effect the other way; the % refers to the signal ratio; as to activation: % is scaled to controls: 0 for no effect and ±100 for the full control effect); details: ER-beta-UAS-bla HEK293T, beta-lactamase FRET ratio, 16 h; activation: at 92.4 µM (top of the series) unless noted
# Outline: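 Agonist mode cell assay in GripTite HEK293T cells expressing an ER-beta fusion that drives beta-lactamase from an Upstream Activator Sequence; 16 hr compound exposure at 37C, then 2 h LiveBLAzer B/G FRET substrate at room temperature, fluorescence read-out.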
# [8] = biological target: Estrogen receptor beta (Homo sapiens) (UniProt Q92731); assay: qHTS assay to identify small molecule antagonists of the estrogen receptor beta (ER-beta) signaling pathway (AID 1259378; active = well fitted inhibition curve with a large enough effect in the signal ratio in the repeat runs, not every such curve was filed as active; inconclusive = weak or mixed curves, or effect the other way; inactive = no such curve, though single readings can be large or run the other way; the % refers to the signal ratio; as to activity, negative = inhibition: % is scaled to controls: 0 for no effect and ±100 for the full control effect); details: ER-beta-UAS-bla HEK293T, beta-lactamase FRET ratio, 16 h; activity, negative = inhibition: at 92.4 µM (top of the series) unless noted
# Outline: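 ER-beta-UAS-bla HEK293T (GripTite) cells in 2% charcoal-stripped FBS medium were preincubated 6 hr at 37C, dosed with compound, then stimulated with 1 nM E2 (final) for 16 hr; beta-lactamase reporter read by B/G FRET fluorescence after 2 hr substrate loading.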
# [9] = qHTS assay to identify small molecule agonists of the androgen receptor (AR) signaling pathway in the presence of an antagonist - cell viability counter screen (AID 1259379); also: nearly all actives have a fitted effect of over 25% in size
# Outline: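 In MDA-kb2 cells (human breast carcinoma, MMTV-luciferase), compounds at 15 concentrations plus 3.0uM nilutamide; 16 hr, 37C, 0% CO2; CellTiter-Fluor fluorescence read for viability.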
# [10] = biological target: Estrogen receptor (Homo sapiens) (UniProt P03372); assay: qHTS assay to identify small molecule antagonists of the estrogen receptor alpha (ER-alpha) signaling pathway using the BG1 cell line in the presence of 0.1 nM 17-beta-estradiol (AID 1259244); also: nearly all actives have a fitted effect of over 50% in size
# Outline: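 Quantitative high-throughput screen in VM7Luc4E2 cells: compound plus 0.1 nM E2 (final), 22 h, 37C, 5% CO2; ONE-Glo added, 30 min room temperature, luminescence measured.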
# [11] = qHTS assay to identify small molecule agonists of the sonic hedgehog signaling (Shh) pathway - cell viability counter screen (AID 1259366); also: nearly all actives have a fitted effect of over 50% in size
# Outline: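 Cells are plated at 2,000 per well and left 4hr at 37C, 5% CO2 before compound addition. After 23hr of treatment, CellTiter-Fluor reagent is added for 1hr at 37C and fluorescence is measured.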
# [12] = biological target: Thyrotropin receptor (Homo sapiens) (UniProt P16473); assay: qHTS assay to identify small molecule antagonists of the thyroid stimulating hormone receptor (TSHR) signaling pathway (AID 1259385; calls by dose curve; also: nearly all actives have a fitted effect of over 20% in size); details: TSHR-HEK293 cAMP HTRF, TSH-stimulated antagonist mode; activity change, negative = inhibition: at 92.4 µM (top of the series) unless noted
# Outline: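 TSHR-HEK293 cells were plated and held 18 h at 37C/5% CO2, then given compound plus Ro20-1724 and stimulated with TSH at 1.5 ng/mL final. After 30 min at room temperature, cAMP was detected with cAMP-d2/anti-cAMP-cryptate (1 h) by fluorescence.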
# [13] = qHTS assay to identify small molecule HDAC inhibitors (AID 1259364); also: nearly all actives have a fitted effect of over 45% in size
# Outline: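 Endogenous HDAC class I/II activity was measured in wild-type HCT-116 cells by HDAC-Glo luminescence after 2 h compound treatment.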
# [14] = qHTS assay to identify small molecule agonists or antagonists of the thyroid stimulating hormone receptor (TSHR) signaling pathway - wild type cell line counter screen (AID 1259384; calls by dose curve); details: HEK293 wild type, cAMP HTRF counter-screen; cAMP activity change: at 92.4 µM (top of the series), stronger effect = higher value unless noted
# Outline: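 Wild-type HEK293 cells were plated 18 h at 37 C/5% CO2, pin-dosed with compound plus Ro20-1724 medium, held 30 min at room temperature, then given cAMP-d2 and anti-cAMP-cryptate; fluorescence was read after 1 h. Fifteen concentrations, triplicate.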
# Potency is read from the fitted curve at half-maximal effect; tags tell the direction and shape of the fitted curve or compound fluorescence and quenching.
# Sequence of UniProt Q92731 (Q92731 whole entry, looked up, the tested form may be a part): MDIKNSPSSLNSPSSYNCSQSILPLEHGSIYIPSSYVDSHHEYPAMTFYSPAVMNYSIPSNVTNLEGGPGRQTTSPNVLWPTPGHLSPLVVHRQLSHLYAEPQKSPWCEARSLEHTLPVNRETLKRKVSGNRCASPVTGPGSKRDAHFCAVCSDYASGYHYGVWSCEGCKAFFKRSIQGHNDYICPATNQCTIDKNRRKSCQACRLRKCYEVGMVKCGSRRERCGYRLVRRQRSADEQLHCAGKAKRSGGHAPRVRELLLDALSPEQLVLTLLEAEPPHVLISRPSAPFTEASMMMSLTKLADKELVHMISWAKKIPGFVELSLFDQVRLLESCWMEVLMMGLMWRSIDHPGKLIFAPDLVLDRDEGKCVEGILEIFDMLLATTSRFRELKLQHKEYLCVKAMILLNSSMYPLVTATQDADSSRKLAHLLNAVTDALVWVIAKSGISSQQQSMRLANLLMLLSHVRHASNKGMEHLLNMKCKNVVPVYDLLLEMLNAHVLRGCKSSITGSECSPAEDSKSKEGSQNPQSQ
# Sequence of UniProt P03372 (P03372 whole entry, looked up): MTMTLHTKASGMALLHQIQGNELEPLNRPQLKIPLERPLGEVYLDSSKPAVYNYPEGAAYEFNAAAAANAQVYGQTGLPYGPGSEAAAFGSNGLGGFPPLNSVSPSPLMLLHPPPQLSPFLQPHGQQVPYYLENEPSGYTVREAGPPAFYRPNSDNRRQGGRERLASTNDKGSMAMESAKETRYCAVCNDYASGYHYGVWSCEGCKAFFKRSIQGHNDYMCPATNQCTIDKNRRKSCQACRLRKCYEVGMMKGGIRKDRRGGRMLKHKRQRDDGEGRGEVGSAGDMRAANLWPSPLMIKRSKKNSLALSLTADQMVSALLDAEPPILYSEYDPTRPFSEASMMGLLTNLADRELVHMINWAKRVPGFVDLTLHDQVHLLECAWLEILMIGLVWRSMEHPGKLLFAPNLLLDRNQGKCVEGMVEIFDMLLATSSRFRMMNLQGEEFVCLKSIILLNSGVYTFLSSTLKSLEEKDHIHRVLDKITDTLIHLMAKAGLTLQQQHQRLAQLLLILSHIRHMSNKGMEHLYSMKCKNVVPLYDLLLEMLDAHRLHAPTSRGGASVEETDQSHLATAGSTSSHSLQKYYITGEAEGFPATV
# Sequence of UniProt P16473 (P16473 whole entry, looked up): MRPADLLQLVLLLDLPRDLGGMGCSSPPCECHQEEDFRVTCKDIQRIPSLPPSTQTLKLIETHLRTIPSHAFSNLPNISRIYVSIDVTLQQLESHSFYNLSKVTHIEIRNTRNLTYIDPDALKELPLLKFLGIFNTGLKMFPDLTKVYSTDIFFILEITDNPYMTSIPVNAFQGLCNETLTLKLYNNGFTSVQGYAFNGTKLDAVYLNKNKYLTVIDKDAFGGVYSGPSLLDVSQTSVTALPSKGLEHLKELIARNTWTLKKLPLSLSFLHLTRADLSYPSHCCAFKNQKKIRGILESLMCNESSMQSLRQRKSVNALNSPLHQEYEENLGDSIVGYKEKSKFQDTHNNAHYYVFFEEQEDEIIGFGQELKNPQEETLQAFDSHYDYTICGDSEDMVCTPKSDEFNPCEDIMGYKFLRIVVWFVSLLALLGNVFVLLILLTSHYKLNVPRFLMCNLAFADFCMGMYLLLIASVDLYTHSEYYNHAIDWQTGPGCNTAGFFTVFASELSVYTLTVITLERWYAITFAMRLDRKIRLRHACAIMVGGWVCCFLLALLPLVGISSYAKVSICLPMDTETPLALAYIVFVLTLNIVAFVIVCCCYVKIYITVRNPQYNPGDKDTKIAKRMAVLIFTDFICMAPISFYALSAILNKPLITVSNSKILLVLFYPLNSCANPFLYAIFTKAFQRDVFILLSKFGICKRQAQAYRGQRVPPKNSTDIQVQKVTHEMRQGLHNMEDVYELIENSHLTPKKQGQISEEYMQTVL
smiles,measurement,setting,value
Clc1ccc2c(c1)C(N1CCNCC1)=Nc1ccccc1O2,Potency,[1],"inconclusive: 68.6 µM [cytotoxic, single point] and inconclusive: 33.5 µM [cytotoxic, single point]"
same,Potency,[2],inconclusive: 5.96 µM [inhibitor]
same,Potency,[3],active: 30.6 µM and active: 23.7 µM
same,Potency,[4],"inconclusive: 15.4 µM [cytotoxic, full curve]"
same,Potency,[5],"inconclusive: 2.43 µM [cytotoxic, single point]"
On1ccccc1=S,Potency,[1],"inconclusive: 1.08 µM [cytotoxic, full curve]"
same,Potency,[6],active: 3.03 µM
same,Potency,[2],active: 0.762 µM
same,activation,[7],inconclusive: -11.2%
same,Potency,[8],active: 0.428 µM
same,Potency,[9],"inconclusive: 2.7 µM [cytotoxic, single point]"
same,Potency,[4],"inconclusive: 0.428 µM [cytotoxic, full curve]"
same,Potency,[5],"inconclusive: 67.9 µM [cytotoxic, single point]"
CCCCCCCCn1sc(Cl)c(Cl)c1=O,Potency,[10],"inconclusive: 27.3 µM [inhibitor, single point]"
same,Potency,[11],"inconclusive: 6.86 µM [cytotoxic, partial curve, poor fit]"
same,Potency,[6],"inconclusive: 109 µM [cytotoxic, single point]"
same,Potency,[2],"inconclusive: 19.3 µM [inhibitor, partial curve, poor fit]"
same,Potency,[8],"inconclusive: 48.6 µM [rising, partial curve, poor fit]"
same,Potency,[9],active: 27.3 µM
same,Potency,[4],"inconclusive: 24.3 µM [cytotoxic, partial curve]"
same,Potency,[12],active: 61.1 µM
Cc1cc(O)c(C(C)C)cc1Cl,Potency,[10],"inconclusive: 68.6 µM [inhibitor, partial curve, poor fit]"
same,Potency,[11],"inconclusive: 43.3 µM [cytotoxic, partial curve] and inactive"
same,Potency,[6],"inconclusive: 13.7 µM [cytotoxic, full curve]"
same,Potency,[2],active: 15.4 µM
same,Potency,[4],"inconclusive: 61.1 µM [cytotoxic, single point]"
same,Potency,[12],"inconclusive: 61.1 µM [falling, partial curve]"
COc1cc(-c2nc(NC(=O)c3cc4cc(C)cc(C)c4n3CC(=O)O)sc2CCC2CCCCC2)c(OC)cc1Cl,Potency,[1],inconclusive: 56 µM [cytotoxic]
same,Potency,[6],"inconclusive: 56 µM [cytotoxic, single point]"
same,Potency,[2],"inconclusive: 62.9 µM [inhibitor, single point]"
same,"activity, negative = inhibition",[8],inconclusive: -51.3%
same,Potency,[4],active: 39.7 µM
same,Potency,[12],"inconclusive: 62.9 µM [falling, partial curve, poor fit]"
Cc1c(N(C)C)c(=O)n(-c2ccccc2)n1C,Potency,[10],"inconclusive: 69.8 µM [inhibitor, single point]"
same,Potency,[13],"inconclusive: 62.2 µM [inhibitor, partial curve]"
same,Potency,[6],"inconclusive: 69.8 µM [cytotoxic, single point]"
Cc1cc(Cc2ccc(N)c(C)c2)ccc1N,Potency,[1],inactive
same,"activity, negative = inhibition",[8],inconclusive: -38.6%
same,Potency,[9],inactive
same,Potency,[3],"inconclusive: 68.6 µM [cytotoxic, single point] and inconclusive: 30.6 µM [cytotoxic, partial curve, poor fit]"
O=C(c1ccc(OCCN2CCCCC2)cc1)c1c(-c2ccc(O)cc2)sc2cc(O)ccc12,Potency,[1],"inconclusive: 68.6 µM [cytotoxic, single point]"
same,Potency,[6],inconclusive: 10.6 µM [cytotoxic]
same,Potency,[2],active: 4.86 µM and active: 2.73 µM and active: 8.41 µM
same,Potency,[9],active: 61.2 µM and active: 61.1 µM and active: 26.6 µM
N=C1N=C(N)c2cc3ccccc3cc21,Potency,[10],"inconclusive: 24.3 µM [inhibitor, full curve]"
same,Potency,[11],active: 27.3 µM
same,Potency,[6],active: 24.3 µM
same,Potency,[7],inconclusive: 68.6 µM
same,Potency,[8],"inconclusive: 61.1 µM [falling, single point]"
same,Potency,[9],inconclusive: 27.3 µM [cytotoxic]
same,Potency,[14],"inconclusive: 77 µM [falling, partial curve, poor fit]"
same,Potency,[12],"inconclusive: 2.43 µM [falling, single point]"
